No constants are given. Whether binding was seen depends on the method and setting. For some of these results: In cells and extracts the contact can be indirect. Some binding calls cover weakened binding; strength is not graded here. For some of these results: Sequences can lack the tags named with a protein.
T1: GFP–WDFY2 (human WDFY2) (human) (UniProt Q96P53)
T1 sequence: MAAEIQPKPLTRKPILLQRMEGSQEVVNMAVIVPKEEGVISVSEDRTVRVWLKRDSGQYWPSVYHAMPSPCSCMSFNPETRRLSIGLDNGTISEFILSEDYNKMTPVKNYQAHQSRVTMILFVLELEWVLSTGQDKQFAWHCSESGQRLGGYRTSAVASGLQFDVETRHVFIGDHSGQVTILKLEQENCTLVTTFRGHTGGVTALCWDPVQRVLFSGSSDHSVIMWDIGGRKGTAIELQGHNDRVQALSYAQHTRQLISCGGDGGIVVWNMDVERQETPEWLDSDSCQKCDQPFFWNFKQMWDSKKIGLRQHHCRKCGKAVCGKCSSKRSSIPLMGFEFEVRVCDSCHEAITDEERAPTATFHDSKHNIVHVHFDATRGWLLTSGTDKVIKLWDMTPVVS

Amino acid sequences for entries named in this document (tags omitted). A change or cut given only in a name is not applied to a line headed by its entry. Chains listed by the source or under a name are the forms on record and can include a tag or linker. Residues count along the entry.
human STX4, cytosolic fragment (residues 1–271 with 272C, lacking the transmembrane domain) (Q12846, form named): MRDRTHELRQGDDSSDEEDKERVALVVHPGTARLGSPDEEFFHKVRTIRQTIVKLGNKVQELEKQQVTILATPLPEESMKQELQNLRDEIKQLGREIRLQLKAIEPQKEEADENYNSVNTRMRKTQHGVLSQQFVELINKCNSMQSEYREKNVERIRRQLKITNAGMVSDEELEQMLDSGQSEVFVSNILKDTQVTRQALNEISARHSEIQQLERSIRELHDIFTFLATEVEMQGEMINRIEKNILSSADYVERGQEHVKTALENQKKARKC
UniProt P70452: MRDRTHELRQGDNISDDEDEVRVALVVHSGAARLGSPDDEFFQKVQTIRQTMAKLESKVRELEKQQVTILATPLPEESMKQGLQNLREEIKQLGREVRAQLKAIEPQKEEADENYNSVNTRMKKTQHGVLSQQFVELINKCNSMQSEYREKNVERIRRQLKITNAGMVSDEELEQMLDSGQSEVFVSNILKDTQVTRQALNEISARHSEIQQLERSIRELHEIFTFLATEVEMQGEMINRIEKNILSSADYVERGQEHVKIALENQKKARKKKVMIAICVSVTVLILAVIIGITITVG
UniProt P63045, residues 49-96: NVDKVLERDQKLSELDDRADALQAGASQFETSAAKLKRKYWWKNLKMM
UniProt P63024: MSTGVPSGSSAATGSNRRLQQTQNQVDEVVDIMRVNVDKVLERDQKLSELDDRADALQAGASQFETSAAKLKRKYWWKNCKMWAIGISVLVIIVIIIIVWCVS
human VAMP3 WT, cytosolic fragment (residues 1–77, lacking the transmembrane domain) (Q15836, residues 1-77): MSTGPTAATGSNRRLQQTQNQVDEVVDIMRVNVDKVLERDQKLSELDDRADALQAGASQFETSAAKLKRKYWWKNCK
human VAMP3 S44A, cytosolic fragment (residues 1–77) (Q15836, form named): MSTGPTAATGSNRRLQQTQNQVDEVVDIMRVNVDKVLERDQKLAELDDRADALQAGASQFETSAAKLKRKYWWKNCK
human VAMP3 S44E, cytosolic fragment (residues 1–77) (Q15836, form named): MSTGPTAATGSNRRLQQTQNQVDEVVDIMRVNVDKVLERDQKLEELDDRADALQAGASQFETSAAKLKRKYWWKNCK

B1: SNAP23 (protein, UniProt O00161 1-211)
chain: MDNLSSEEIQQRAHQITDESLESTRRILGLAIESQDAGIKTITMLDEQKEQLNRIEEGLDQINKDMRETEKTLTELNKCCGLCVCPCNRTKNFESGKAYKTTWGDGGENSPCNVVSKQPGPVTNGQLQQPTTGAASGGYIKRITNDAREDEMEENLTQVGSILGNLKDMALNIGNEIDAQNPQIKRITDKADTNRDRIDIANARAKKLIDS

What was measured:
[1] = target: human STX4, cytosolic fragment (residues 1–271 with 272C, lacking the transmembrane domain) (human) (UniProt Q12846); experiment: SEC; 100 mM (so in the source) of each protein mixed, overnight at room temperature; complex purified on ENrich SEC 70 in 20 mM HEPES pH 7.4, 100 mM NaCl, 0.2 mM TCEP, 1% CHAPS; both purified
[2] = target: T1, GFP–WDFY2 (human WDFY2) (human); experiment: co-IP; HEK293 cells co-transfected with pEGFP-N1-WDFY2 and a VAMP3–mCherry construct; RIPA lysate, 2 mg protein, anti-GFP antibody overnight at 4°C, protein A/G magnetic beads; blots for WDFY2 and VAMP3
[3] = target: STX4–mCitrine (mouse STX4), in dendritic cells (mouse) (UniProt P70452); experiment: FRET or BRET; FRET–FLIM in live human monocyte-derived dendritic cells at 37°C; donor STX4–mCitrine, acceptor VAMP3–mCherry; lifetime of STX4–mCitrine analysed at the cell periphery (approximating the plasma membrane)
[4] = target: preformed acceptor complex of SNAP23, cytosolic fragment of STX4 and VAMP2(49–96) (UniProt Q12846); experiment: SDS-resistant SNARE complex formation (SDS-PAGE, Coomassie Blue); 10 mM (so in the source) of the STX4 complex with SNAP23 and VAMP2 (49–96) mixed with VAMP3, room temperature overnight; samples heated 10 min at 95°C or not heated; ternary complexes SDS resistant at 20°C; single experiment; both purified

Row | Molecule | binding [2] | binding [4] | further results
1 | VAMP2 (49–96) (from UniProt P63045 49-96) (domain or fragment) | – | – | binding [1]: binds
2 | VAMP3–mCherry S48A (mouse VAMP3), in HEK293 cells (from UniProt P63024 1-103) | no binding | – | –
3 | VAMP3–mCherry S48A (mouse VAMP3, phosphodead), in dendritic cells (from UniProt P63024 1-103) | – | – | binding [3]: binds
4 | VAMP3–mCherry S48E (mouse VAMP3), in HEK293 cells (from UniProt P63024 1-103) | no binding | – | –
5 | VAMP3–mCherry S48E (mouse VAMP3, phosphomimetic), in dendritic cells (from UniProt P63024 1-103) | – | – | binding [3]: binds
6 | VAMP3–mCherry WT (mouse VAMP3), in HEK293 cells (from UniProt P63024 1-103) | binds | – | –
7 | human VAMP3 S44A, cytosolic fragment (residues 1–77) (from UniProt Q15836 1-77) (domain or fragment) | – | binds | –
8 | human VAMP3 S44E, cytosolic fragment (residues 1–77) (from UniProt Q15836 1-77) (domain or fragment) | – | binds | –
9 | human VAMP3 WT, cytosolic fragment (residues 1–77, lacking the transmembrane domain) (from UniProt Q15836 1-77) (domain or fragment) | – | binds | –
10 | B1 | – | – | binding [1]: binds

Reference: paper PMC12579954
